Test results from PubChem BioAssay (NCI).
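Each compound was tested at five concentrations against cells in 96-well plates for 48 hours. Abbreviation: GI50, concentration required for 50% inhibition of growth. TGI: total growth inhibition.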

Test system: NCI-H322M lung
Assay: growth of human tumour cells (NCI), 48 h

Row | Structure (SMILES) | TGI | GI50
1 | Oc1ccc(/C=N/NC(=S)Nc2cccnc2)nc1 | > 100 µM | 
2 | CCOC(=O)CCSC1=CC(=O)c2nc3ccccc3c3ccnc1c23 | > 100 µM | 64.2 µM
3 | Cc1ccc(NC2=CC(=O)C(=O)c3ccccc32)cc1 | 5.31 µM | 1.83 µM
4 | CCOC(=O)c1ccc(N(CCOS(=O)(=O)c2ccc(C)cc2)CCOS(=O)(=O)c2ccc(C)cc2)cc1 | > 100 µM | 
5 | Oc1cc(O)c2c(c1)OC(c1ccc(O)c(O)c1)C(O)C2c1c(O)cc(O)c2c1OC(c1ccc(O)c(O)c1)C(O)C2 (centres undefined) | > 100 µM | 
6 | Cc1ccc(CN2CCN(Cc3ccc(C)o3)C(C)C2)o1 (centres undefined) | > 100 µM | 
7 | CC(=O)c1cccc(Nc2nc3ccccc3c3[nH]c4ccccc4c23)c1 | > 100 µM | 
8 | CCC(=O)CCC1=Nc2nnc(CCCCc3nnc4n3C(=O)C(CCC(=O)CC)=N4)n2C1=O | > 100 µM | 
9 | COc1nc2c(c(=O)[nH]1)N=C(c1ccc(Cl)cc1)CC(c1ccccc1)N2 (centres undefined) | > 100 µM | 
10 | CNC(=O)NCCN1N=C(C)/C(=C\c2ccccc2)CC1=O | > 100 µM | 
11 | c1ccc(COC[C@H]2C3OCC([C@H](OCc4ccccc4)[C@H]3OCc3ccccc3)N2Cc2ccccc2)cc1 (some centres undefined) | > 100 µM | 
12 | COC(=O)c1cc2c(cc1C(=O)OC)[C@@]1(C)CCCC(C)(C)C1CC2 (some centres undefined) | 38.6 µM | 
13 | O=C1NC(N2CCCCC2)=N/C1=C\c1ccco1 | > 100 µM | 
14 | CCSCCCC(=O)O | > 100 µM | 
15 | N#CC(C#N)=C1CCC2C(=C(C#N)C#N)CCC12 (centres undefined) | > 100 µM | 
16 | CN1CCN(Cc2ccccc2)CC1CC#N (centres undefined) | > 100 µM | 
17 | C1=C\CCCCN2CC[C@H]3[C@H](CCCC/C=C\CCCN4C[C@@H](CCCCC/1)C[C@@H]3C4)C2 | 26.7 µM | 13.5 µM
18 | O=c1[nH]c2ccccc2n1C1CCN(CCOc2ccccc2)CC1 | > 100 µM | 98 µM
19 | C/C(=C\CC/C=C(\C)CC/C=C(\C)CCC1SC1(C)C)CC/C=C(\C)CCC1OC1(C)C (centres undefined) | > 100 µM | 
20 | N[C@H]1CCN(c2c(F)cc3c(=O)c(C(=O)O)cn4c3c2Oc2c-4ccc3c2ccc2ccccc23)C1 | > 55.3 µM | 
21 | O=C(O)c1cc(Cl)cc(Cc2cc(Cl)cc(C(=O)O)c2O)c1O | > 100 µM | 
22 | COC(=O)CNC(=O)CSc1nnc(COc2ccc(Cl)cc2)n1-c1ccccc1 | 50 µM | 
23 | CCOC(=O)c1cc2c(n1Cc1ccccc1OC)-c1oncc1CCC2 | > 100 µM | 5.23 µM
24 | O=C(O)CCC(NC(=O)c1ccc(Oc2nc3ccccc3nc2-c2ccccc2)cc1)C(=O)O (centres undefined) | > 100 µM | 
25 | O=C(O)CCC(NC(=O)c1ccc(CNc2nc3cc(C(F)(F)F)ccc3nc2C(=O)O)cc1)C(=O)O (centres undefined) | > 100 µM | 
26 | COc1cc(NCCC2CCCCN2)c2ncccc2c1OC (centres undefined) | 33.7 µM | 15.9 µM

Row | Structure (SMILES) | TGI | GI50
27 | CC[C@]1(Cc2ccc(OC)c(OC)c2)C=[N+]([O-])O[C@H](OCc2ccccc2)[C@@H]1OC(C)=O | > 100 µM | 
28 | CC1(C)CC[C@]2(CO)CC[C@]3(C)C(=CC[C@@H]4[C@@]5(C)CCNCC(C)(C)[C@@H]5CC[C@]43C)[C@@H]2C1 | 14.7 µM | 3.98 µM
29 | Cc1cn(C2CC(O)C(COC(N)=O)O2)c(=O)[nH]c1=O (centres undefined) | > 100 µM | 
30 | O=C(c1ccc(Nc2nccc(NCCCCNc3ccnc4cc(Cl)ccc34)n2)cc1)N1CCCCC1 | 13.2 µM | 3.15 µM
31 | Nc1nc(N)c(-c2ccc(Cl)c(Cl)c2)c(CP(Cl)(Cl)(Cl)Br)n1 | > 100 µM | 8.48 µM
32 | Cc1cn2c(/C=C3\C(=O)N(C)c4ccc(Cl)cc43)c(C)nc2s1 | > 100 µM | > 100 µM
33 | CCN1C/C(=C\c2ccc(Cl)cc2)c2[nH]c(=O)c(C#N)c(-c3ccc(Cl)cc3)c2C1 | > 100 µM | 
34 | COc1ccc(/C=C/c2nc(=S)[nH][nH]2)cc1OC | > 100 µM | 
35 | C/C(=N\NC(=S)N1CCN(c2ccccn2)CC1)c1cccc2cccnc12 | > 56.2 µM | 
36 | COC(=O)/C(=N\N)C(C(=O)C(=O)Nc1nc(=S)[nH][nH]1)c1nc2ccc([N+](=O)[O-])cc2[nH]c1=O (centres undefined) | > 100 µM | 
37 | CC1(C)CN(CCNc2nccc(-c3c(-c4cccc(O)c4)nc4sccn34)n2)S(=O)(=O)N1 | > 33.2 µM | 13.8 µM
38 | Nc1ncc2c(n1)-c1ccccc1OC2N1CCOCC1 (centres undefined) | > 100 µM | 
39 | COC1C(=O)N(SC)C1c1ccccc1Cl (centres undefined) | > 100 µM | 
40 | O=C(O)c1[nH]c2c([N+](=O)[O-])cc([N+](=O)[O-])cc2c1C(=O)O | > 100 µM | 
41 | OCC1OC(n2cnc3c(NCc4ccccc4O)ncnc32)C(O)C1O (centres undefined) | > 53.7 µM | 0.69 µM
42 | COc1ccc(C(Nc2ccccn2)c2cc(C(C)(C)C)cc(C(C)(C)C)c2O)cc1 (centres undefined) | > 100 µM | 
43 | COC1OC(Cn2cc([N+](=O)[O-])nc2C)C(O)C(O)C1O (centres undefined) | > 100 µM | 
44 | C1=Cc2cccc3occ(c23)C=C1 | > 100 µM | 
45 | CCS(=O)(=O)N1CCN(c2ccc(Nc3ncc(C(N)=O)c(NC4CC4)n3)cc2)CC1 | > 100 µM | 12.3 µM
46 | COc1cccc(-c2nn(-c3ccccc3)cc2-c2ccnc(NCCCNS(=O)(=O)c3ccc(C(F)(F)F)cc3)c2)c1 | > 100 µM | > 100 µM
47 | CC(C)(C)OC1=C(OC(C)(C)C)C(O)(c2ccc(Cl)cc2)C1=O (centres undefined) | > 100 µM | 
48 | CC(=O)c1ccc(Oc2c3ccccc3nc3occc23)cc1 | 74 µM | 0.0186 µM
49 | CCOC(=O)c1ccn2c(c1)c(C#N)c1nc3ccccc3nc12 | > 100 µM | 
50 | CCN(CC)CCCC(C)Nc1ccnc(/C=C/c2ccc(Cl)cc2)c1 (centres undefined) | 8.26 µM | 
51 | CCOC(=O)c1cc(C(=O)c2cc(OC)c(OC)c(OC)c2)n2ccc(-c3cc[n+](CC(=O)c4cc(OC)c(OC)c(OC)c4)cc3)cc12 | 7.45 µM | 2.3 µM
52 | NCCCNc1nc2ccccc2c2c(=O)c3cc(F)cc(Cl)c3sc12 | 3.21 µM | 1.69 µM

Row | Structure (SMILES) | TGI | GI50
53 | C=C1C(O)C2CC(C)(C)C(=O)C2=C(CC(C)C)C12CC2 (centres undefined) | > 100 µM | > 100 µM
54 | C=CCC1C(=O)CC2(C)C(CC=C)C(=O)CC12C (centres undefined) | > 100 µM | 
55 | O=c1[nH]c(=O)n(C2OC(CO)C(O)C2O)cc1F (centres undefined) | > 100 µM | 
56 | NC(=O)NC(=O)c1cccc(NC(=O)CCl)c1 | 22.6 µM | 
57 | C=CCN1C(=O)CS/C1=N\NC(=O)CSc1nc2ccccc2c(=O)n1CC | > 100 µM | 
58 | COc1cc2cnc3c4cc(OC)c(OC(C)C)cc4ccc3c2cc1OC | > 100 µM | 
59 | CCOC(=O)c1csc(-c2cn(C)c3c2C(=O)C(OC)=CC3=O)n1 | > 100 µM | 
60 | COc1ccc(C2=NN(C(=O)c3ccc(Cl)cc3)C(O)(c3cc(F)c(Cl)cc3Cl)C2)cc1 (centres undefined) | > 100 µM | 
61 | N#CCC(=O)Nc1ccccc1O | > 100 µM | 
62 | Cc1cc(C)c(C(=O)C(C)C(c2ccccc2)c2ccc(Cl)cc2)c(C)c1 (centres undefined) | > 100 µM | 
63 | CCN(CC)CCCNc1cc(OC)c(OC)c2cccnc12 | 37.6 µM | 10 µM
64 | Oc1ccc(/C=N/c2nccs2)c(O)c1 | > 100 µM | 
65 | Cc1cnc2[nH]c(-c3ccc(Cl)cc3)cc(=O)c2c1 | > 100 µM | 
66 | COc1cc2c(cc1O)C(=O)O[C@@H]1CC=C3CCN(C)[C@H]3[C@H]21 | > 25 µM | 
67 | Cc1ccc(O)c(C2=NNC(c3cccc(Cl)c3)C2)c1 (centres undefined) | > 100 µM | 
68 | COc1cccc(CCn2c(N)c(C#N)c3ccc([N+](=O)[O-])cc3c2=O)c1 | > 46.4 µM | 
69 | Nc1ncnc2c1ncn2CCCCC(=O)O | > 100 µM | 
70 | CN(C(=O)c1ccccc1)c1ccc2c(c1)C(=O)c1ccccc1C2=O | > 100 µM | 
71 | CC1(C)CCC[C@@]2(C)C1CC[C@@]1(CO1)[C@@H]2/C=C\C(C=O)CC=O (some centres undefined) | > 100 µM | 
72 | CN(C)C/C=C/C(=O)Nc1cc2c(Nc3cccc(Cl)c3F)ncnc2cc1OCCOC(F)F | 4.75 µM | < 0.01 µM
73 | c1ccc(/C(=N\Nc2nc3ccccc3s2)c2ccccn2)cc1 | 27.8 µM | 
74 | CC(C)=CCOc1ccc(-c2coc3cc4c(c(O)c3c2=O)C=CC(C)(C)O4)cc1 | > 100 µM | 
75 | CCc1ccccc1NC(=O)C(=O)C(C#N)c1c(Cl)cccc1Cl (centres undefined) | > 100 µM | 
76 | C[C@@H](Oc1cc(-c2cnn(C3CCNCC3)c2)cnc1N)c1c(Cl)cc(F)cc1Cl | 18.1 µM | 5.11 µM
77 | COC(=O)[C@H](C)N(C)C(=O)[C@H](C)N1[C@@H](c2ccccc2)COC1(C)C | > 100 µM | 
78 | COC(=O)C(=O)C(C(C)=O)C(=O)C(=O)Nc1ccc(C)cc1C (centres undefined) | > 100 µM | 

Row | Structure (SMILES) | TGI | GI50
79 | Cc1ccc2c(c1)CC1(C2)Cc2ccc(C)cc2C1=O (centres undefined) | 55.5 µM | 
80 | O=C(COc1cccc(/C=C2\Oc3ccc4ccccc4c3C2=O)c1)c1ccc([N+](=O)[O-])cc1 | > 100 µM | > 100 µM
81 | Nn1c(CCCCCCCCc2n[nH]c(=S)n2N)n[nH]c1=S | > 100 µM | 
82 | c1ccc2c(c1)[nH]c1c3ccccc3sc21 | > 100 µM | 
83 | O=C1c2ccccc2C(=O)c2sc(Nc3ccc([N+](=O)[O-])cc3)nc21 | 26.7 µM | 
84 | O=C(Nc1cc2cc([N+](=O)[O-])ccc2oc1=O)c1cccs1 | > 100 µM | 
85 | CCC(=C(c1ccc(OCCN2CCCC2)cc1)c1ccc(OCCN2CCCC2)cc1)c1ccc(Cl)cc1 | 1.18 µM | 0.603 µM
86 | CN1C(=O)N(c2nc3ccccc3[nH]2)C(C)(C)C1=O | > 100 µM | 
87 | C=C1C(C(=O)O)C1C(=O)O (centres undefined) | > 100 µM | 
88 | C[C@H]1S[C@H](c2c(F)cccc2F)n2c1nc1ccccc12 | > 100 µM | 
89 | C=C1C(=O)O[C@H]2[C@H]1CC/C(COC(=O)/C=C\C(=O)NCc1ccc(Cn3c(=O)sn(-c4ccc(Cl)cc4)c3=O)cc1)=C\CC[C@@]1(C)O[C@@H]21 | 4.79 µM | 1.86 µM
90 | CCCCC[C@H]1C/C=C2/C(=O)C(Cl)=C[C@@H]2C/C=C\CCCC(=O)O1 | 2.72 µM | 0.768 µM
91 | CCOC(=O)CCn1cnc(N)n1 | > 100 µM | 
92 | CC12CCC(=O)[C@@]1(C)CCCC2O (some centres undefined) | > 100 µM | 
93 | O=C(OCc1ccccc1)n1cccc1 | > 100 µM | 
94 | COc1cc(C(=O)OC2CC34CCNC35CC(OC5(OC)C2O)c2cc3c(cc24)OCO3)ccc1O (centres undefined) | > 100 µM | 
95 | COc1cc2c(cc1OC)[C@H]1C(COC(=O)Nc3ccccc3)CN1CC2 (some centres undefined) | > 100 µM | 
96 | COc1ccc2[nH]c3c(O)c(-c4c(C)cc5c([nH]c6ccc(OC)cc65)c4O)c(C)cc3c2c1 | 8.54 µM | 
97 | O=C(NC(CCCCN1C(=O)c2ccccc2C1=O)P(=O)(Oc1ccccc1)Oc1ccccc1)OCc1ccccc1 (centres undefined) | > 100 µM | 
98 | N#CC1=C(c2ccccc2)OC2(N)OC(c3ccccc3)=C(C#N)C12C#N (centres undefined) | > 100 µM | 
99 | COC1(OC)C2C=CC1C([C@](C)(N)CO)C2 (some centres undefined) | > 100 µM | 
100 | CCCCCC(/C=C/c1ncccc1OCCCCCC(=O)O)=N\NC1=NCCN1 | > 100 µM | 
101 | COc1ccc2nc3ccccc3c(NCc3ccccc3)c2c1 | 5.47 µM | 1.93 µM
102 | Cc1ccc(O)c(C(c2cc(C)ccc2O)c2cc([N+](=O)[O-])ccc2O)c1 | 36.4 µM | 
103 | CCOC(=O)c1nc2cc(F)cc(F)c2[nH]c1=O | > 100 µM | 
